From paper PMC12136788 come the findings set out here.

Positions count from the first letter of the chain named. The list shows a part of the results.

B1: chr14:90871081:90871082:+_ENSG00000198668_ENST00000553542|hu_mus|FALSE|FALSE (ssRNA)
RNA: GGGAGUUCUACAGUCCGACGAUCUUCUUUUUUUUGUAAGAGGUAAGUAAAAGAUUUCAAUUUGAUUCUUCUAGAGGGGGAAAAGUAGUUGAAAGUAGGUCUUCAUUUUGCAGUCAUCAUCUGUACGAAUUCUUCAUAGUUGACCAACAGAGGAUUGAGCAUCA
B2: chr1:115110812:115110813:-_ENSG00000116752_ENST00000369541|hu_mus|FALSE|FALSE (ssRNA)
RNA: GGGAGUUCUACAGUCCGACGAUCGUCUUGGCGGAUGUUUUCCUUGUUGGCCUCCCCGUGCUGCUGCUUGAUCUGAUAGAUCUCGUUCUCCAGCUGGACAAUCGUCCGCUCAAUCUCAUAGUUCUUACUCACCAGCGACACCCACAACAGAGGAUUGAGCAUCA
B3: chr11:71671816:71671817:+_ENSG00000137522_ENST00000530137|hu_mus|FALSE|FALSE (ssRNA)
RNA: GGGAGUUCUACAGUCCGACGAUCGCAAUGAGGAUGAGGACCAUUUCAGCGUGCAUGGCUUCGUGGCCACGAUGUUUGGCAUGCAUUCGAGCAUGUUCGACCCUCCACUGCUCCUCUGGGGAGAGGUCUGACAUAUCAACCUCACAACAGAGGAUUGAGCAUCA
B4: chr8:11181129:11181130:+_ENSG00000104643_ENST00000221086|hu_hu|motif|central (ssRNA)
RNA: GGGAGUUCUACAGUCCGACGAUCCAGUGCAUCUCUGGUUUAAGAAAACCUAUUUGUAGCUUGAUUAUAAUAAAUUAACUCGGUUCGGGAUGAUGGUUUAAUUUUACAAGCAGCAUUUGAAACACAUUGUAUAUGUAUGCUCAACAACAGAGGAUUGAGCAUCA
B5: chr12:39756943:39756944:-_ENSG00000139116_ENST00000544797|hu_mus|hu_hu_hu_mus_False|8_18 (ssRNA)
RNA: GGGAGUUCUACAGUCCGACGAUCGGUUUGGCUGUUACCCCCAAGGGAAUCCUGCAAGAGUCUUGUCAGCUUAGAGUCUCUGUAAGGGACAUGGGUGGCUCUCUUGCUCUUGUCCCCCAAGGCACUUAUUACAUUGCCAAGAGCCAACAGAGGAUUGAGCAUCA
B6: chr6:114281168:114281169:-_ENSG00000196591_ENST00000368632|hu_hu|hu_hu_hu_mus_True|1_98 (ssRNA)
RNA: GGGAGUUCUACAGUCCGACGAUCUUCCAUUUUUCGGUAUAAGCCAUAAUUUAGCAGCAAGUUAUGAGUCAUCCGGAUUCUAUGAGGCUUCAUGGGAUGACCCUGGCCAUAAUAAUAAUUGCCAAUAUCACCAUCAUACUAGAACAACAGAGGAUUGAGCAUCA
B7: 105421030_105421150_1886_CDS_ENSG00000114423_ENST00000394027|human|control|control (ssRNA)
RNA: GGGAGUUCUACAGUCCGACGAUCACUCGCUGUGAUUCCAGGUUUUGGAGAGCCCUCCCCUAGGAGUCGACAUCCCACAAGCUGAUUAGUCCCAAACACAUCCCGAGGGCACCAUGCUUCAAGAGGCAUUGGCGGGUCUCUGGACAACAGAGGAUUGAGCAUCA
B8: 38690349_38690469_566_CDS_ENSG00000109787_ENST00000261438|human|control|control (ssRNA)
RNA: GGGAGUUCUACAGUCCGACGAUCGUAUUUUUUUAUCGGUGGGCUGGAAGAAGGCAUGCUCAACCCAGGCGAGGCUCUCCGGUGUGAGGACGGGAACUUCAGAGAGGAGGGCGAAUUCCCAGCCGAAGGGGGUGAACUCCGCUUCAACAGAGGAUUGAGCAUCA
B9: chrX:20248820:20248821:+_ENSMUSG00000001924_ENSMUST00000001989|mus_mus|mus_mus_mus_hu_True|88_108 (ssRNA)
RNA: GGGAGUUCUACAGUCCGACGAUCGGCAAAGUCAGUCACCACAAAGUCAGGCUCUACCAGUGAGGCCACCAAGGAUUUAAAGCUAAUCUUCUUAGGUACUUUGACCUGACUGACGAUGCCUCCACGGAUGUAGUCGGAGAAGUUCAACAGAGGAUUGAGCAUCA
B10: 33856500_33856620_4295_3pUTR_ENSMUSG00000042197_ENSMUST00000044455|mouse|control|control (ssRNA)
RNA: GGGAGUUCUACAGUCCGACGAUCGUUUCCAAAAGCACAUCUCCAAGCAUUAUUUAUUUUGUUUUGUUUUUAAACAACAAGAGUAUCUCAUAAAUCAUGUGAUAUGUAGCAUCUAAUUCAGGGCAAGAUGGAAAAGAACAAACGCAACAGAGGAUUGAGCAUCA
B11: chr10:57206289:57206290:+_ENSMUSG00000019878_ENSMUST00000079833|mus_mus|FALSE|FALSE (ssRNA)
RNA: GGGAGUUCUACAGUCCGACGAUCGCCGGCACGUUGGAACUCUGCUUCAUUGUUAGCCCGGUGCAGGGAUUCCAAAUUCUACUACCGAACGCGGAGGUCGCAGCGGCGGCGGCGGCGGCGGCGGCGGCAGCAGCGGCGGUGGCACAACAGAGGAUUGAGCAUCA
B12: chr2:29169617:29169618:+_ENSG00000163811_ENST00000407426|hu_mus|FALSE|FALSE (ssRNA)
RNA: GGGAGUUCUACAGUCCGACGAUCCGUGUGACUGGCUGGCUGCAUCUGUCUUCAUUCUUCUUCACUCUCGUUUUCAGGAUCUAAAUCCGAAUCUCCAUUUAAUUCUUUUUCACUUGACACUUCUCUGUCCUCCUCAUUCUCUUCCAACAGAGGAUUGAGCAUCA
B13: chr12:55961440:55961441:-_ENSMUSG00000062929_ENSMUST00000078124|mus_mus|FALSE|FALSE (ssRNA)
RNA: GGGAGUUCUACAGUCCGACGAUCCAUCAUGACUGAUAUUCAAAAUAUCUGUAGUGUUUCAAGACUCAUAUGGUAAACAUAAAUUAUACAGUAGUGUACACUCAUCGGGAAACCAAAGACAUUAGCACAGCUGUUUCUUUGAAACAACAGAGGAUUGAGCAUCA
B14: chr14:76904430:76904431:+_ENSMUSG00000022010_ENSMUST00000022587|mus_mus|mus_mus_mus_hu_True|88_88 (ssRNA)
RNA: GGGAGUUCUACAGUCCGACGAUCUGCAGCCAAAAACACCCUCGUGGCGGGAGGGAGGGAACACCAGCAGCCUUGUAUAAGCUAGAUAAAAUCUUCUGGCUUUCCGCAGCCCAGGGAGAAACAGAAAACGGCAGCCCUAAUUUACAACAGAGGAUUGAGCAUCA
B15: chr10:79719409:79719410:+_ENSMUSG00000020153_ENSMUST00000020361|mus_hu|FALSE|FALSE (ssRNA)
RNA: GGGAGUUCUACAGUCCGACGAUCCCAGAUCUGCAGCCUCCGCUCCCGCUUGAUCUUCCUCUGCAGCUGCAGGAUGCCGUAGAGCAGGGCCUCGGCCGUAGGUGGGCAGCCUGGGAUGUAGAUGUCCACGGGCACGAUGCGGUCCAACAGAGGAUUGAGCAUCA
B16: chr2:155973683:155973684:-_ENSMUSG00000027620_ENSMUST00000109587|mus_mus|motif|central (ssRNA)
RNA: GGGAGUUCUACAGUCCGACGAUCCAUGGACAUUUAAAACAGCAGAACAAGAGAACAGCUUUGCAUAAAGUAGGAUUUGCGGGUUAGGGAUAAUGAGCACACUGCAUUCCUGUUAACAUUUUUAUUUUUCAAGGUAACAGGAGUCAACAGAGGAUUGAGCAUCA
B17: chr2:232320318:232320319:-_ENSG00000115053_ENST00000322723|hu_hu|hu_hu_hu_mus_True|18_78 (ssRNA)
RNA: GGGAGUUCUACAGUCCGACGAUCACUAUUAAAGUCUACAAAACCAAACCCUUUGGAGGACCCAGUUUCCCGAUCAGUGACUAUUCUUGCACGAACAGAGCCCUCAAAUGAUUCUUUUAAUGUCUCUUCAGUGGUAUCCUCAGACAACAGAGGAUUGAGCAUCA
B18: chr2:232320318:232320319:-_ENSG00000115053_ENST00000322723|hu_hu|hu_hu_hu_mus_True|68_68 (ssRNA)
RNA: B17 RNA with G57A, C60A, A72G, U120G
B19: 11923595_11925804_69_5pUTR_ENSMUSG00000022205_ENSMUST00000022816|mouse|control|control (ssRNA)
RNA: GGGAGUUCUACAGUCCGACGAUCAGUUCCUUUGAUUUAGGCAUUGCUCCGCUCCGGCCGACCAAAAACCUCUGCCUCGCUCGCUCGCCUACUCCGGACUGACAGAGAGCCGGAAAUGACGGCAGCUUAGAGGCCCUGGCUCCGCAACAGAGGAUUGAGCAUCA
B20: chr7:151048522:151048523:+_ENSG00000013374_ENST00000566856|hu_mus|hu_hu_hu_mus_True|68_78 (ssRNA)
RNA: GGGAGUUCUACAGUCCGACGAUCCUGUUUCUUAUUUAUUACGAUCUUGAUGUAAUUUUCUUGAAGUCCAAAGGUUUCAGCUAUUUGACACCUCAGGUCUCUACCAGUGACAUGCAAGCGGGUCUCCAACAAGCUUUUCUUAUCCAACAGAGGAUUGAGCAUCA
B21: chr4:25749455:25749456:-_ENSG00000091490_ENST00000264868|hu_hu|hu_hu_hu_mus_False|58_108 (ssRNA)
RNA: GGGAGUUCUACAGUCCGACGAUCGCAAGCACUAGGAUAGAAAAAUCCACAGGGGGAAAAAAUGUAAACCAAUGUACAAAGCUAUUGCCUUCCCUGUGUGUGGAGUGUUUGUCUCAAGGCUCCUUCUAGCUGCUGGAUUUGGGACAACAGAGGAUUGAGCAUCA
B22: chr14:21319500:21319501:-_ENSMUSG00000021816_ENSMUST00000161445|mus_hu|FALSE|FALSE (ssRNA)
RNA: GGGAGUUCUACAGUCCGACGAUCGAGUUGUAUUCCAGGGCAUGAGGGAAGCAGGCCACCAAAGUAAAGGGAAAUACCAAACUACAGUGGCAAUCAAUACAGGUCAAUAAUUGUGAAAAAUUAGCACAUGGUUCCAUUUAGUUUCAACAGAGGAUUGAGCAUCA

The test deals with T1, UNK ZnF1-3 (human, UniProt Q9C0B0 31-174).
T1 sequence: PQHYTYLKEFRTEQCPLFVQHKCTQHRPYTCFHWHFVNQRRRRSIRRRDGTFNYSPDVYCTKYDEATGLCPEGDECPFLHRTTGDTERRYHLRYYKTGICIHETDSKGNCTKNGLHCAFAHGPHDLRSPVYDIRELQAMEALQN
As to the kind of experiment: nsRBNS (natural sequence RNA bind-n-seq); RBNS binding buffer (assumed for nsRBNS): 25 mM Tris pH 7.5, 150 mM KCl, 3 mM MgCl2, 0.01% Triton X-100, 500 ug/ml BSA, 20 U/ml SUPERase-In, 4 C; UNK is unkempt and MSI1 is Musashi-1; names of the RNAs are library labels; protein concentration not given here; high values mean tight binding.
For B1, the binding signal amounted to 1.26 enrichment R. For the molecule B2, the binding signal was 0.605 enrichment R. For B3 the value was 1.12 enrichment R. B4 yielded a binding signal of 0.938 enrichment R.

B5 came in with a binding signal of 0.595 enrichment R. The same measure for B6: 0.75 enrichment R; for B7: 0.891 enrichment R; for B8: 1.44 enrichment R. The same measure for B9: 0.925 enrichment R; for B10: 1.47 enrichment R. As for B11, the binding signal turned out to be 0.728 enrichment R.

Molecule B12 registered a binding signal of 0.439 enrichment R. The same measure for B13: 0.9 enrichment R. The same measure for B14: 2.13 enrichment R; for B15: 0.51 enrichment R; for B16: 1.54 enrichment R. The same measure for B17: 0.969 enrichment R. In turn, B18 returned a binding signal of 0.394 enrichment R.

Consider B19, for which the binding signal turned out to be 0.21 enrichment R. B20 showed a binding signal of 0.675 enrichment R.

B21: the binding signal worked out at 1.26 enrichment R. As to B22, the binding signal was found to be 2.07 enrichment R.
